Measured values published in PubChem BioAssay AID1347165 (National Center for Advancing Translational Sciences (NCATS), 2019).
Several values for one entry are separate records, joined by “and”; a condition that tells them apart may be missing. Identical values can stand only once. Hit rate of the full screen: of about 220,000 compounds, about 5,700 (2.6%) were called active. This list was built around the results that the source calls inconclusive (neither active nor inactive); the mix of calls is not that of the screen. Calls come from the whole dose curve; as a rule, active = well fitted inhibition curve with a large enough effect; inconclusive = small, poorly fitted or top-dose-only effect; inactive = no such curve, though single readings can be large or run the other way. Potencies of inconclusive entries are doubtful fits and often do not repeat.
Note: nearly all actives have a fitted effect of over 70% in size.
Potency is the fitted concentration of half-maximal effect; tags give direction and shape of the fitted curve.
Throughout, for activity change, negative = inhibition: 0% is about no effect.

Each molecule was assayed against Lysine-specific demethylase 5B (Homo sapiens) (UniProt Q9UGL1) (assay: Primary screen for KDM5B Histone Demethylases FDH-coupled qHTS). Details: FDH-coupled NADH fluorescence (FDH is formaldehyde dehydrogenase); activity change, negative = inhibition: at 57.7 µM (top of the series) unless noted.
UniProt Q9UGL1, sequence (Q9UGL1 whole entry, looked up, the tested form may be a part): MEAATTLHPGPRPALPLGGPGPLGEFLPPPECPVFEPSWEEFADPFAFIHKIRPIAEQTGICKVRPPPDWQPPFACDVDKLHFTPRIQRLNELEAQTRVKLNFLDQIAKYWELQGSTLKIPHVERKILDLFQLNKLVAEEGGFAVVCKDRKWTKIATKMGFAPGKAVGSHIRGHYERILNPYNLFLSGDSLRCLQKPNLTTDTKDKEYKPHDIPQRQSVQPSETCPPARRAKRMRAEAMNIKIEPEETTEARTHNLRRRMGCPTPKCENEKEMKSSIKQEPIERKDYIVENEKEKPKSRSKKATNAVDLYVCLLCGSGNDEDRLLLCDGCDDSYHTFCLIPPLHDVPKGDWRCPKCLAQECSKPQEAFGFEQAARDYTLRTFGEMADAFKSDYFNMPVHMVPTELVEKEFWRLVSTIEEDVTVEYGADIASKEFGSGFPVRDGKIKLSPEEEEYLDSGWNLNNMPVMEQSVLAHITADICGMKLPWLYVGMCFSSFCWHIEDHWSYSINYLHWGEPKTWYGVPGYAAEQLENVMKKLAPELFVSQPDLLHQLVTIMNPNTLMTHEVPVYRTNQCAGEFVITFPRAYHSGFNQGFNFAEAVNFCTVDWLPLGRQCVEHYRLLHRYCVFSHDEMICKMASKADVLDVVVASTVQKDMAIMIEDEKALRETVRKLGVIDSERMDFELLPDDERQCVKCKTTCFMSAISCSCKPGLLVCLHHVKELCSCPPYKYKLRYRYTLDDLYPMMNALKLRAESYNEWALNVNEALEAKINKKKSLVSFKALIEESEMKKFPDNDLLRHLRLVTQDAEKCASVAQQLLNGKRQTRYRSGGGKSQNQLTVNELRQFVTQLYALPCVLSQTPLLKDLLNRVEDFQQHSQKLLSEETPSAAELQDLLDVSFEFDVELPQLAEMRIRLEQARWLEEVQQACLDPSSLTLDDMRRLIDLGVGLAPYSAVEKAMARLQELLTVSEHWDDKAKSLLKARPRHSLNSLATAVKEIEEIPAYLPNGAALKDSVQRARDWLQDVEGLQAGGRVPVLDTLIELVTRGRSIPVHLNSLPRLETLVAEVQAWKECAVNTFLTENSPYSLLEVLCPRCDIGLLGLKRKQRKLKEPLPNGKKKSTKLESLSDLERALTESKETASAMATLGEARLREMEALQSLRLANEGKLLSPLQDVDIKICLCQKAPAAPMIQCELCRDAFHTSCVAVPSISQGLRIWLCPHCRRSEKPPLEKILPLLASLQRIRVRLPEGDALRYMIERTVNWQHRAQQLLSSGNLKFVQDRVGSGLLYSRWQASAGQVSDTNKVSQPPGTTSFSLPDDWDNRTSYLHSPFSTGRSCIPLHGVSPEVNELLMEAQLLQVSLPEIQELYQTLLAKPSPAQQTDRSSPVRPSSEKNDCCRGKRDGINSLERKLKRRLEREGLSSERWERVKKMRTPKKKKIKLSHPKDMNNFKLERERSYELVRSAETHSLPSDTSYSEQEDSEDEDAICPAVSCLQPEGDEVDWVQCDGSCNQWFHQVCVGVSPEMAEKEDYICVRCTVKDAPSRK
Method in brief: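 Inhibition is measured as reduced NADH fluorescence generation from FDH coupling to formaldehyde release. Truncated KDM5BΔAP at 200 nM final acts on H3K4me3 peptide (12.5 µM in substrate mix) in pH 7.5 HEPES buffer with Tween-20, 30 min, room temperature.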
In the case of `CC1(C)CC(NC(=S)Nc2cc(F)cc(F)c2)CC(C)(C)N1`, the Potency was “inactive”.
`CC1CCN(c2oc(-c3ccc(F)cc3)nc2C#N)CC1` was tested, and the Potency was inconclusive: 11.2 µM [inhibitor, partial curve, poor fit] and inconclusive: 25.1 µM [inhibitor, partial curve, poor fit].
For `O=C(CCC[C@@H]1[C@H]2CCCN3CCC[C@@H](CN1C(=O)c1cccnc1)[C@@H]23)NCCCN1CCCC1`, the Potency was inconclusive: 14.1 µM [inhibitor, partial curve].
With `CC(C)c1noc(-c2cn(C3CCN(C(=O)c4cc5ccccc5[nH]4)C3)nn2)n1` (configuration not stated) the Potency was inconclusive: 20 µM [inhibitor, single point].
For `CC(=O)Nc1ccc(-c2csc(NC3CCCCC3)n2)c(F)c1`, the Potency was “inactive”.
For `CCCN(C)c1nccnc1OC1CCN(C(=O)c2c(F)cccc2F)C1` (configuration not stated), the Potency was inconclusive: 22.4 µM [inhibitor, partial curve, poor fit].
In the case of `COc1cccc(-c2cc(C(=O)NCc3cccnc3)c3c(c2)N(C)CCO3)c1OC`, the Potency was active: 35.5 µM.
`Cc1cccc(-c2nc(C#N)c(NCC3CCCO3)o2)c1` (configuration not stated) was tested, and the Potency was inconclusive: 25.1 µM [inhibitor, partial curve, poor fit].
For `COCc1nc2nc(-c3ccccc3)c(-c3ccccc3O)cc2n1C`, the Potency was “inactive”.
`COc1ccc(-c2cc(N3CCCC3)nc(N)n2)c2ccc(C)nc12` was tested, and the Potency was inconclusive: 35.5 µM [inhibitor, single point].
With `COc1cc(C#N)ccc1OC(C(=O)NC1CC1)c1ccccc1` (configuration not stated) the Potency was “inactive”.
With `Cc1ccc(C)c(NC(=O)CCn2cnc3c2c(=O)n(C)c(=O)n3C)c1` the Potency was “inactive”.
In the case of `CCCN1CCN(c2nnc(-n3cccc3CN3CCN(c4ccccc4)CC3)s2)CC1`, the Potency was “inactive”.
For `COc1cc(NC(=O)c2ccc(N3C(=O)CCS3(=O)=O)cc2)cc(OC)c1OC`, the Potency was “inactive”.
`CCOC(=O)c1ccc(NC(=O)C2CC(=O)Nc3cc(F)ccc32)cc1` (configuration not stated) was tested, and the Potency was “inactive”.
`O=C(CSc1nc(C2CC2)n(-c2ccccc2)n1)N1CCN(c2ccc(F)cc2)CC1` was tested, and the Potency was “inactive”.
In the case of `COc1ccccc1CNC(=O)c1oc2c(c1C)-c1nn(Cc3ccc(Cl)cc3)cc1CC2`, the Potency was inconclusive: 1 µM [inhibitor, full curve, poor fit].
`FC(F)(F)c1ccc(/C=N/Nc2cccc(Cl)c2)cc1` was tested, and the Potency was inconclusive: 39.8 µM [inhibitor, single point].
`CC(=O)c1cccc(NC(=O)COc2c(C)[nH]ccc2=O)c1` was tested, and the Potency was “inactive”.
`COc1ccc(NC(=O)c2nc3ccccc3nc2OC)cc1OC` was tested, and the Potency was “inactive”.
In the case of `COc1ccccc1-c1cc(C(F)(F)F)nc(S(=O)(=O)CCCC(=O)Nc2ccc(F)c(Cl)c2)n1`, the activity change, negative = inhibition was inconclusive: -30.8% [inhibitor].
For `Cc1cc(C(=O)NC2CC(C)(C)Cc3nc(N4CCOCC4)ncc32)nn1C` (configuration not stated), the Potency was inconclusive: 28.2 µM [inhibitor, single point].
For `Cc1ccc(-c2ccc3nnc(CNC(=O)c4ccc(F)cc4)n3n2)cc1`, the Potency was active: 25.1 µM.
With `CC(C)C(=O)Nc1ccc(F)cc1F` the Potency was “inactive”.
With `C[N+](C)(C)CC#CCCCCC#CC[N+](C)(C)C` the Potency was “inactive”.
For `Cc1cc(-c2nc3ccccc3s2)ccc1NC(=O)c1ccccc1C`, the Potency was inconclusive: 1.78 µM [inhibitor, full curve, poor fit].
`COc1ccc(CNC(=O)C(C)OC(=O)C23CC4CC(CC(C4)C2)C3)cc1` (configuration not stated) was tested, and the Potency was “inactive”.
For `COc1ccc(C(=O)NCCSc2c(C)[nH]c3ccccc23)cc1`, the activity change, negative = inhibition was inconclusive: -31.4% [inhibitor].
In the case of `COCCn1ccc2c(OCC(=O)NCc3ccc(F)cc3)cccc2c1=O`, the Potency was inconclusive: 25.1 µM [inhibitor, single point].
For `O=C(NCC1CCCO1)C1CC(=O)N(c2cccc(Cl)c2)C1` (configuration not stated), the Potency was “inactive”.
In the case of `CN(CC1CCOCC1)S(=O)(=O)c1ccccc1Cl`, the Potency was inconclusive: 6.31 µM [inhibitor, single point].
`COC(=O)[C@@H]1Cc2ncn(C(C)C)c2CN1S(=O)(=O)c1ccc(OC)cc1` was tested, and the Potency was inconclusive: 56.2 µM [inhibitor, single point].
For `CC(=O)NCc1ccc(-c2csc(Nc3cccc(C)c3)n2)o1`, the Potency was inconclusive: 14.1 µM [inhibitor, partial curve, poor fit].
`COc1cc(C(C)=O)ccc1OS(=O)(=O)c1ccc2c(c1)CCC2` was tested, and the Potency was “inactive”.
In the case of `CCCc1nc2ccccc2c(C(=O)OCC(=O)NC)c1CC`, the Potency was “inactive”.
In the case of `O=C(Nc1ccc(N2CCCCC2)c2ccncc12)C1CCC1`, the Potency was inconclusive: 14.1 µM [inhibitor, partial curve, poor fit].
`COc1ccc(C(=O)NCC2Cn3cccc3CN2Cc2cccnc2)cc1` (configuration not stated) was tested, and the Potency was active: 12.6 µM.
With `COc1cccc(CN2CCCC(O)(CNC3CCCCCCC3)C2=O)c1` (configuration not stated) the Potency was “inactive”.
For `CN(C)c1cccc(C(=O)N2CCNc3cnc(Nc4ccc(N5CCOCC5)cc4)nc3C2)c1`, the Potency was “inactive”.
`Cc1ccccc1C(=O)NC1CCC(C(F)(F)F)CC1` (configuration not stated) was tested, and the Potency was “inactive”.
In the case of `Cc1ccc(NC(=O)c2ccc(N3CC4CC(C3)[C@H]3CCCC(=O)N3C4)nc2)cc1` (some centres not stated), the Potency was “inactive”.
With `CN(Cc1ccccc1OC(F)(F)F)Cc1cccn1C` the Potency was “inactive”.
In the case of `Cc1sc2nc(C(C)Sc3nnnn3C(C)(C)C)[nH]c(=O)c2c1C` (configuration not stated), the Potency was “inactive”.
With `Cc1cc(C)cc(NC(=O)CCNC(=O)C2CCCC2)c1` the Potency was “inactive”.
With `Cc1ccc(-n2nc(C)c([C@@H]3C=C[C@@H](NC(=O)NC(C)C)C3)c2C)cc1Cl` the Potency was “inactive”.
In the case of `COc1ccc(-n2cc(C(=O)NC(C)c3ccccc3)c3ccccc3c2=O)cc1` (configuration not stated), the Potency was inconclusive: 28.2 µM [inhibitor, single point].
`O=C(Cc1c[nH]c2ncc(-c3ccccc3C(F)(F)F)cc12)N1CCOCC1` was tested, and the Potency was inconclusive: 35.5 µM [inhibitor, single point].
`Cc1ccc(N2CC(c3nnc(NC(=O)c4ccco4)s3)CC2=O)cc1C` (configuration not stated) was tested, and the Potency was inconclusive: 15.8 µM [inhibitor, single point].
For `COc1cccc(C2CC(=O)N3CN(C4CCCCC4)CSC3=C2C#N)c1` (configuration not stated), the Potency was inconclusive: 1.58 µM [inhibitor, full curve, poor fit].
In the case of `CCc1ccc(C2CC(C(=O)NCc3ccc4c(c3)OCO4)CN(C(=O)c3ccc(F)cc3)C2)cc1` (configuration not stated), the Potency was inconclusive: 28.2 µM [inhibitor, single point].
For `COc1ccc(C)cc1NC(=O)c1nn(-c2ccccc2)cc1OC`, the Potency was inconclusive: 35.5 µM [inhibitor, single point].
For `O=C(c1nc(-c2ccc(Cl)cc2Cl)c2cnccn12)N1CCOCC1`, the Potency was active: 79.4 µM.
In the case of `Cc1ccc(S(=O)(=O)NCc2nnnn2-c2ccc(C)c(C)c2)cc1`, the Potency was “inactive”.
`CCCOc1ccc(-c2nc(C#N)c(NCCN3CCOCC3)o2)cc1` was tested, and the Potency was “inactive”.
For `COc1ccc(CNC(=O)c2nc(-c3ccccc3)oc2C)cc1OC`, the Potency was “inactive”.
For `Cc1ccc(COc2ccc(C=O)cc2Cl)cc1`, the Potency was inconclusive: 31.6 µM [inhibitor, partial curve, poor fit].
`CCOc1ccccc1CN(CCc1ccc2c(c1)OCO2)Cc1cccc(OC)c1OC` was tested, and the Potency was inconclusive: 0.631 µM [inhibitor, full curve, poor fit].
`COc1ccccc1C(=O)N1CCCN(c2cc(-c3ccc(Cl)cc3)[nH]n2)CC1` was tested, and the Potency was “inactive”.
With `CCCCOc1ccc(/C=C(/C#N)c2ccccn2)cc1` the Potency was “inactive”.
In the case of `CCNS(=O)(=O)O`, the Potency was “inactive”.
For `Nc1cccc(Nc2ccccc2)c1`, the Potency was inconclusive: 39.8 µM [inhibitor, single point].
For `CCOc1ccc(C(=O)NCCn2ccn3nc(-c4ccc(OC)cc4)cc3c2=O)cc1`, the Potency was active: 8.91 µM.
`Cc1ccc(OCC(=O)NCC2CCN(c3cnn(C)c(=O)c3)C2)cc1` (configuration not stated) was tested, and the Potency was “inactive”.
`COc1cccc(NC(=O)c2cc3c(=O)n(Cc4cccnc4)ccc3nc2C)c1` was tested, and the Potency was inconclusive: 25.1 µM [inhibitor, partial curve, poor fit].
`Cc1cccc2c(C3CCN(S(=O)(=O)c4cc(Cl)cc(Cl)c4)CC3)c[nH]c12` was tested, and the Potency was inconclusive: 17.8 µM [inhibitor, single point].
With `COc1ccc(CCNCC(O)COc2ccc(OC)cc2C(C)(C)C)cc1` (configuration not stated) the Potency was inconclusive: 17.8 µM [inhibitor, partial curve, poor fit].
`COc1ccccc1CNC(=O)CCC1N=C2c3ccccc3N=C(SCC(=O)NCCc3ccc(OC)c(OC)c3)N2C1=O` (configuration not stated) was tested, and the Potency was “inactive”.
`CC1(C)Cc2c(C#N)c(Nc3ccccc3)n3c(SCC(=O)O)nnc3c2CO1` was tested, and the Potency was “inactive”.
`Cc1ccc(-c2noc([C@@H]3C[C@H](NS(=O)(=O)Cc4ccccc4)CN3C)n2)cc1` was tested, and the Potency was “inactive”.
`O=C(CCCn1c2ccccc2c(=O)c2ccccc21)Nc1ccc(F)cc1Cl` was tested, and the Potency was inconclusive: 15.8 µM [inhibitor, partial curve, poor fit].
With `Fc1ccc(N/N=C/c2ccc(Br)cc2)c(F)c1` the Potency was “inactive”.
With `O=C(NCc1nc(-c2cccc(F)c2)c(-c2ccccn2)[nH]1)N1CCCC1` the Potency was active: 22.4 µM.
With `C=CCCC(CN1CCCOCC1)Oc1ccc(Cn2ccnc2)cn1` (configuration not stated) the Potency was “inactive”.
For `O=C(N[C@H]1CCOC[C@H]1C1CCOCC1)c1ccc(-n2ccnc2)cc1`, the Potency was inconclusive: 20 µM [inhibitor, partial curve, poor fit].
In the case of `O=C(c1ccc2cc[nH]c2c1)N1C[C@@H](CO)[C@H](c2ccccn2)C1`, the Potency was inconclusive: 10 µM [inhibitor, partial curve].
In the case of `CCOC(=O)C(=O)CC(=O)c1ccc(Cl)c(Cl)c1`, the Potency was inconclusive: 28.2 µM [inhibitor, single point].
With `CCCCCCc1ccc(N=Cc2ccc(OCC(C)CC)cc2O)cc1` (configuration not stated) the Potency was “inactive”.
